Reference: PubChem BioAssay (Tox21)
The shares of active, inactive and inconclusive entries below differ from those in the screen. For some assays here: Potencies of inconclusive entries are doubtful fits and often do not repeat. Calls of active or inactive are those of the source. Unless noted, calls come from the whole dose curve; as a rule, active = well fitted curve in the direction sought with a large enough effect in the repeat runs; inconclusive = weak or mixed curves; inactive = no such curve, though single readings can be large; an effect the other way counts as inactive or inconclusive.

Experiments:
[1] = qHTS assay for small molecule agonists of the p53 signaling pathway (AID 651631; calls by dose curve; note: nearly all actives have a fitted effect of over 15% in size; note: potency is the fitted concentration of half-maximal effect; for activation: % is set by controls: 0 for no effect and ±100 for the full control effect); conditions: HCT-116 p53RE-bla reporter, beta-lactamase FRET ratio, 16 h; activation: at 73.3 µM (top of the series) unless noted
How it was run: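 p53RE-bla HCT-116 cells; compounds 16 h, 37 °C; LiveBLAzer B/G FRET substrate 2 h RT; fluorescence intensity read-out, qHTS format.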

[2] = qHTS assay for small molecule disruptors of the mitochondrial membrane potential (AID 720635); conditions: HepG2 mitochondrial membrane potential, Mito-MPS dye ratio; ratio activity, negative = MMP loss: at 83.2 µM (top of the series) unless noted; note: % is set by controls: 0 for no effect and ±100 for the full control effect
How it was run: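 Mitochondrial membrane potential tracked with Mito-MPS dye, red aggregates (ex 540/em 590 nm) against green monomers (ex 490/em 535 nm). Compound treatment 1 hr at 37C, dye 30 min in HepG2.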

[3] = target: Peroxisome proliferator-activated receptor gamma (Homo sapiens) (UniProt P37231); assay: qHTS assay to identify small molecule antagonists of the peroxisome proliferator-activated receptor gamma (PPARg) signaling pathway (AID 743191; calls by dose curve; note: % is set by controls: 0 for no effect and ±100 for the full control effect; nearly all actives have a fitted effect of over 30% in size); conditions: HEK293H PPARg-UAS-bla, beta-lactamase ratio, antagonist, 17 h; ratio activity, negative = inhibition: at 62.6 µM (top of the series) unless noted
How it was run: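 Beta-lactamase reporter under UAS control in HEK293H PPARg-bla cells; compound treatment 17 h at 37C. Read-out: fluorescence intensity after 1 h room-temperature incubation with LiveBLAzer B/G FRET substrate.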

[4] = qHTS assay for small molecule agonists of the antioxidant response element (ARE) signaling pathway (AID 743202; active = well fitted activation curve with a large enough effect in the signal ratio in the repeat runs, not every such curve was filed as active; inconclusive = weak or mixed curves, or effect the other way; inactive = no such curve, though single readings can be large or run the other way; the % refers to the signal ratio; note: potency is the fitted concentration of half-maximal effect); conditions: HepG2 ARE-bla reporter, beta-lactamase FRET, 16 h; activation: at 73.3 µM (top of the series) unless noted
How it was run: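 Beta-lactamase reporter activity, read as fluorescence intensity, reflects ARE/Nrf2 pathway induction in HepG2 cells after 16 h compound exposure at 37 C; substrate loading was 2 h at room temperature.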

[5] = qHTS assay to identify small molecule antagonists of the peroxisome proliferator-activated receptor delta (PPARd) signaling pathway - cell viability counter screen (AID 743213); conditions: PPARd-bla HEK293H viability, CellTiter-Glo luminescence, 17 h; viability change, negative = cytotoxic: at 62 µM (top of the series) unless noted; note: potency is the fitted concentration of half-maximal effect; nearly all actives have a fitted effect of over 50% in size
How it was run: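 Luminescence from CellTiter-Glo, added after the bla read and incubated 30 min at room temperature, gives viability of HEK293H PPARd-bla cells exposed to compounds for 17 h at 37 C with 300 nM L165041.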

[6] = target: Vitamin D3 receptor (Homo sapiens) (UniProt P11473); assay: qHTS assay to identify small molecule antagonists of the vitamin D receptor (VDR) signaling pathway (AID 743223; active = well fitted inhibition curve with a large enough effect in the signal ratio in the repeat runs, not every such curve was filed as active; inconclusive = weak or mixed curves, or effect the other way; inactive = no such curve, though single readings can be large or run the other way; the % refers to the signal ratio; note: % is set by controls: 0 for no effect and ±100 for the full control effect); conditions: VDR-UAS-bla HEK293T, beta-lactamase FRET ratio, 16 h; activity change, negative = inhibition: at 61 µM (top of the series) unless noted
How it was run: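 Beta-lactamase reporter read-out: FRET substrate fluorescence after 2 h at room temperature, following 16 h exposure of VDR-bla cells to test compound plus 3 nM (final) 1alpha,25-dihydroxyvitamin D3 agonist at 37C.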

[7] = target: Retinoic acid receptor RXR-alpha (Homo sapiens) (UniProt P19793); assay: qHTS assay to identify small molecule agonists of the RXR signaling pathway (AID 1159527; calls by dose curve; note: nearly all actives have a fitted effect of over 35% in size; note: potency is the fitted concentration of half-maximal effect); conditions: HEK293T RXRa-UAS-bla, beta-lactamase ratio, 16 h; activation: at 76.8 µM (top of the series) unless noted
How it was run: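 Agonist mode; 9-cis retinoic acid positive control. HEK 293T UAS-bla reporter cells, 2% charcoal-stripped FBS, 16 hr compound exposure at 37 C/5% CO2. LiveBLAzer B/G FRET substrate 2 hr RT; ex 405, em 460/530 nm.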

[8] = qHTS assay to identify small molecule antagonists of the progesterone receptor (PR) signaling pathway - cell viability counter screen (AID 1346798); note: % is set by controls: 0 for no effect and ±100 for the full control effect; nearly all actives have a fitted effect of over 50% in size
How it was run: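 Luminescence readout (CellTiter-Glo, 30 min, RT) of viability in PR-UAS-bla HEK293T cells exposed to compound and R5020 agonist for 16 hr at 37C, 5% CO2; run in the same wells as the beta-lactamase reporter read.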

[9] = target: Cytochrome P450 2D6 (Homo sapiens) (UniProt P10635); assay: Cytochrome P450 Family 2 Subfamily D Member 6 (CYP2D6) small molecule antagonists: luciferase reporter qHTS assay (AID 1671196); note: % is set by controls: 0 for no effect and ±100 for the full control effect; nearly all actives have a fitted effect of over 50% in size
How it was run: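 Test chemicals meet CYP2D6 plus proluciferin substrate (10 min, RT); NADPH regenerating solution then drives turnover for 1 h. Detection reagent halts the reaction; luminescence measured after 20 min.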

[10] = target: Cytochrome P450 2C9 (Homo sapiens) (UniProt P11712); assay: Cytochrome P450 Family 2 Subfamily C Member 9 (CYP2C9) small molecule antagonists: luciferase reporter qHTS assay (AID 1671198); note: nearly all actives have a fitted effect of over 50% in size; note: potency is the fitted concentration of half-maximal effect
How it was run: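 Enzyme-substrate mix preincubated with compound 10 min at room temperature; reaction started with NADPH regeneration solution, 1 h 37C. Luminescent luciferin product read after 20 min detection reagent.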

[11] = qHTS assay for identifying genotoxic compounds that show differential cytotoxicity against isogenic chicken DT40 cell lines with known DNA damage response pathways - Rev3 mutant cell line (AID 743014); conditions: chicken DT40 Rev3-/- viability, CellTiter-Glo, 40 h; activity, negative = cytotoxicity: at 68.4 µM (top of the series) unless noted; note: potency is the fitted concentration of half-maximal effect; nearly all actives have a fitted effect of over 55% in size
[12] = qHTS assay to identify small molecule antagonists of the thyroid receptor (TR) signaling pathway - cell viability counter screen (AID 743064); conditions: GH3.TRE-Luc viability, CellTiter-Fluor, 24 h; activity change, negative = cytotoxic: at 70.3 µM (top of the series) unless noted; note: nearly all actives have a fitted effect of over 50% in size; note: potency is the fitted concentration of half-maximal effect
How it was run: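 GH3.TRE-Luc cells, 4 h pre-plating; cpd + T3 1 nM final; 37 °C 23.5 h; CellTiter-Fluor 30 min; fluorescence read.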

[13] = qHTS assay to identify small molecule agonists of the farnesoid-X-receptor (FXR) signaling pathway - cell viability counter screen (AID 743218); conditions: FXR-bla HEK293T viability, CellTiter-Glo luminescence, 16 h; viability change, negative = cytotoxic: at 62.6 µM (top of the series) unless noted; note: potency is the fitted concentration of half-maximal effect; nearly all actives have a fitted effect of over 45% in size
How it was run: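 Viability of FXR-bla HEK 293T cells is measured by ATP-based CellTiter-Glo luminescence following 16 h compound treatment at 37 C and a prior 2 h room-temperature beta-lactamase substrate step.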

[14] = target: Progesterone receptor (Homo sapiens) (UniProt P06401); assay: qHTS assay to identify small molecule antagonists of the progesterone receptor (PR) signaling pathway (AID 1346795; active = well fitted inhibition curve with a large enough effect in the signal ratio in the repeat runs, not every such curve was filed as active; inconclusive = weak or mixed curves; the % refers to the signal ratio; note: potency is the fitted concentration of half-maximal effect); conditions: PR-UAS-bla HEK293T, beta-lactamase FRET ratio, 16 h; activity change, negative = inhibition: at 92.4 µM (top of the series) unless noted
How it was run: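 Beta-lactamase reporter, HEK293T PR-UAS-bla line; 2% charcoal-stripped FBS; 6 hr pre-incubation, 37C/5% CO2. Compound + R5020 1 nM final, 16 hr. LiveBLAzer B/G FRET substrate, 2 hr RT; fluorescence intensity read.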

[15] = qHTS assay to identify small molecule agonists of the progesterone receptor (PR) signaling pathway - cell viability counter screen (AID 1346799; calls by dose curve; note: nearly all actives have a fitted effect of over 45% in size; note: potency is the fitted concentration of half-maximal effect)
How it was run: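 HEK293T PR-UAS-bla, 3,000 cells/well, 2% charcoal-stripped FBS; 6 h settle, compound 16 h at 37C/5% CO2; LiveBLAzer 2 h RT, then CellTiter-Glo 30 min RT, luminescence read.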

[16] = target: Cytochrome P450 2C19 (Homo sapiens) (UniProt P33261); assay: Cytochrome P450 Family 2 Subfamily C Member 19 (CYP2C19) small molecule antagonists: luciferase reporter qHTS assay (AID 1671197); note: potency is the fitted concentration of half-maximal effect; nearly all actives have a fitted effect of over 65% in size
How it was run: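 Light output is proportional to CYP2C19 activity: proluciferin substrate is converted to luciferin, then detected by a luciferin detection reagent that also stops the 1 h, 37C NADPH-driven reaction. Ketoconazole serves as positive control.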

[17] = target: Glucocorticoid receptor (Homo sapiens) (UniProt P04150); assay: qHTS assay to identify small molecule antagonists of the glucocorticoid receptor (GR) signaling pathway (AID 720692; active = well fitted inhibition curve with a large enough effect in the signal ratio in the repeat runs, not every such curve was filed as active; inconclusive = weak or mixed curves, or effect the other way; inactive = no such curve, though single readings can be large or run the other way; the % refers to the signal ratio; note: % is set by controls: 0 for no effect and ±100 for the full control effect); conditions: GR-bla HeLa, beta-lactamase FRET ratio, dexamethasone-stimulated, 18 h; activity change, negative = inhibition: at 58.5 µM (top of the series) unless noted
How it was run: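 Quantitative HTS in antagonist format: HeLa cells expressing endogenous GR and a stably integrated GRE-bla reporter, stimulated with 5 nM dexamethasone (final) alongside test compounds for 18 h.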

[18] = target: Cytochrome P450 1A2 (Homo sapiens) (UniProt P05177); assay: Cytochrome P450 Family 1 Subfamily A Member 2 (CYP1A2) small molecule antagonists: luciferase reporter qHTS assay (AID 1671199)
How it was run: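 Steps: enzyme-substrate mix dispensed; test compounds and furafylline control pinned in; 10 min room temperature; NADPH regeneration solution added, 1 h; reaction stopped with luciferin detection reagent; luminescence read after 20 min.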
Tags give direction and shape of the fitted curve or compound fluorescence and quenching.

UniProt P33261, sequence (P33261 whole entry, looked up): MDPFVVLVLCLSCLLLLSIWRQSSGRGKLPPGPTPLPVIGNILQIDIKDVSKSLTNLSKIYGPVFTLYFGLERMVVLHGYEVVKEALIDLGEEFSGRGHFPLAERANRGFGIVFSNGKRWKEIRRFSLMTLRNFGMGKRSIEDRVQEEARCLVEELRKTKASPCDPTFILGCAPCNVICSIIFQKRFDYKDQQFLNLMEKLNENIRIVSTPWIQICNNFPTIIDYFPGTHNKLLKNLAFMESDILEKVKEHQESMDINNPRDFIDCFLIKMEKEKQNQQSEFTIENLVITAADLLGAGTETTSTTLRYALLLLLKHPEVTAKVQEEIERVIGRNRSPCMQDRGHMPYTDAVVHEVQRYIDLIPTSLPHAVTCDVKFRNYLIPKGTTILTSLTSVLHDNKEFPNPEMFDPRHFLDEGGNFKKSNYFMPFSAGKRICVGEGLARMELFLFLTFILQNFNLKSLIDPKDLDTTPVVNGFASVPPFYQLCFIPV
UniProt P19793, sequence (P19793 whole entry, looked up): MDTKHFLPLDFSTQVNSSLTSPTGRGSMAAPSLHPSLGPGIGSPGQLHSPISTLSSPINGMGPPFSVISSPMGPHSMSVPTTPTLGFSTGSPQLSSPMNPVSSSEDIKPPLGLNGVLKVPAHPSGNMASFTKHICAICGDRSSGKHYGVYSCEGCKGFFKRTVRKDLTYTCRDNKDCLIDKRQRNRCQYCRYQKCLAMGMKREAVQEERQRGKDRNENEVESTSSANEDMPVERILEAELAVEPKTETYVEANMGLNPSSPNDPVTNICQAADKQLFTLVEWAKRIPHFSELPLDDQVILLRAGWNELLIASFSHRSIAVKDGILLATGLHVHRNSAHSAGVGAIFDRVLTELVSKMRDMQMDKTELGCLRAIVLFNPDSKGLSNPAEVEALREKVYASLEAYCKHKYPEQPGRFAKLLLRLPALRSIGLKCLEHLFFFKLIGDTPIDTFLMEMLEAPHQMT
UniProt P37231, sequence (P37231 whole entry, looked up): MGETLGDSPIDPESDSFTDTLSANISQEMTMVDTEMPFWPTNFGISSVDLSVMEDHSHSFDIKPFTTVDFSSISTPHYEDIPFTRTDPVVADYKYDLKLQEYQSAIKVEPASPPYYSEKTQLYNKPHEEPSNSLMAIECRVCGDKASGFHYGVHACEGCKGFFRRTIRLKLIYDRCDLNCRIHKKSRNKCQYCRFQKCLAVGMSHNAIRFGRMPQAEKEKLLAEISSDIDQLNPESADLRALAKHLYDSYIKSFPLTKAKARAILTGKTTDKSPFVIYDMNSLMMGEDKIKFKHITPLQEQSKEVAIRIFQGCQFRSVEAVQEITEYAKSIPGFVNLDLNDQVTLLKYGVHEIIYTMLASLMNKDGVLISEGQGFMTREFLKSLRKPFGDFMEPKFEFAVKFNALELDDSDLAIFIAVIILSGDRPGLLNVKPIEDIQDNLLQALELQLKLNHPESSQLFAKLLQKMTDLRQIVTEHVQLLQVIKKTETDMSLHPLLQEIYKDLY
UniProt P11712, sequence (P11712 whole entry, looked up): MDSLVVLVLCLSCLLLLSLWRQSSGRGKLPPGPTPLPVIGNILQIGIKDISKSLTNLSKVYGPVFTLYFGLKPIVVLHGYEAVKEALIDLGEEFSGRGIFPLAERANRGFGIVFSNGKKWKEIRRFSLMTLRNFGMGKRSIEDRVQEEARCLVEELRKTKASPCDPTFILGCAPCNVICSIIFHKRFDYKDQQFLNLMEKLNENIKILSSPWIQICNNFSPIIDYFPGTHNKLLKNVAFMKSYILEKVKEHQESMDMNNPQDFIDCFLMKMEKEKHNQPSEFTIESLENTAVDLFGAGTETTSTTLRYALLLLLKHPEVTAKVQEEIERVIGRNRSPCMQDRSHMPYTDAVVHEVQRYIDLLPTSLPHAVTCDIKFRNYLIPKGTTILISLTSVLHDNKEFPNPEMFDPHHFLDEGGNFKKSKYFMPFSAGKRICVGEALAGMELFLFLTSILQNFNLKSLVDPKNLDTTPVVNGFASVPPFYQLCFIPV
UniProt P06401, sequence (P06401 whole entry, looked up): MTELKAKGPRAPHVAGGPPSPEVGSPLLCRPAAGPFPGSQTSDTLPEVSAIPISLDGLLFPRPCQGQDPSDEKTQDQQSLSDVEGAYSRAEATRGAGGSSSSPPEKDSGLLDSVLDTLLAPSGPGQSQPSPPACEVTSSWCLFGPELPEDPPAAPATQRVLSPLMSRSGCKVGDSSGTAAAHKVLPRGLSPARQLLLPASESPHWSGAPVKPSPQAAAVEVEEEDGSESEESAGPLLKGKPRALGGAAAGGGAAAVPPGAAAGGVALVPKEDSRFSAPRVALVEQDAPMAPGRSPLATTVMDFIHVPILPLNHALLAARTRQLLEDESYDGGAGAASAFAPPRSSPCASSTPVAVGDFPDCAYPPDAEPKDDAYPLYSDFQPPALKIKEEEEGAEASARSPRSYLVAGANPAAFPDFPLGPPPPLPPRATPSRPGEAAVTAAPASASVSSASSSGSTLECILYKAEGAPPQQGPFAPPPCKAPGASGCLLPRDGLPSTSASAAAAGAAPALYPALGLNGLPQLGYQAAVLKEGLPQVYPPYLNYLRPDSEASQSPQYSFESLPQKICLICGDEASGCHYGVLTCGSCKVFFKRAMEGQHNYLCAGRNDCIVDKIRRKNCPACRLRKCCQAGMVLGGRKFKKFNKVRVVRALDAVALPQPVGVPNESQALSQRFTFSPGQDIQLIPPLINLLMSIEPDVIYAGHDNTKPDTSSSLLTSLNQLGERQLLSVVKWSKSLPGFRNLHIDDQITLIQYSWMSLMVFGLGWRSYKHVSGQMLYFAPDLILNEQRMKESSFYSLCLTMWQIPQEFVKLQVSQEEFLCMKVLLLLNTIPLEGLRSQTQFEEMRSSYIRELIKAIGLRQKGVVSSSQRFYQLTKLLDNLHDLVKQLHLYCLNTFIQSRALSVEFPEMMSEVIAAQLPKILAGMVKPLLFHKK
UniProt P11473, sequence (P11473 whole entry, looked up): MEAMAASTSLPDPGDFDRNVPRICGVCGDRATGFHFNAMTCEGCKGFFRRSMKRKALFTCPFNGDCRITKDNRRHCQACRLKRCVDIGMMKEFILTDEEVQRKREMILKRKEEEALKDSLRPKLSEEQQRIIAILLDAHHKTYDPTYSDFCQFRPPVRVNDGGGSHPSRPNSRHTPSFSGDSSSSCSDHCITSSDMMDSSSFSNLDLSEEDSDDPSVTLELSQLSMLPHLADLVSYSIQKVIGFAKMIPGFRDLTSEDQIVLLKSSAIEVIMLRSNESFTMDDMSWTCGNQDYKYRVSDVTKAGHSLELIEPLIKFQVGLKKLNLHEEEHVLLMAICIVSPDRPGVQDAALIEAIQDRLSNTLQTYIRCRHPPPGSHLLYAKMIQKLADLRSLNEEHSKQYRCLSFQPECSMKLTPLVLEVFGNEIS
UniProt P05177, sequence (P05177 whole entry, looked up): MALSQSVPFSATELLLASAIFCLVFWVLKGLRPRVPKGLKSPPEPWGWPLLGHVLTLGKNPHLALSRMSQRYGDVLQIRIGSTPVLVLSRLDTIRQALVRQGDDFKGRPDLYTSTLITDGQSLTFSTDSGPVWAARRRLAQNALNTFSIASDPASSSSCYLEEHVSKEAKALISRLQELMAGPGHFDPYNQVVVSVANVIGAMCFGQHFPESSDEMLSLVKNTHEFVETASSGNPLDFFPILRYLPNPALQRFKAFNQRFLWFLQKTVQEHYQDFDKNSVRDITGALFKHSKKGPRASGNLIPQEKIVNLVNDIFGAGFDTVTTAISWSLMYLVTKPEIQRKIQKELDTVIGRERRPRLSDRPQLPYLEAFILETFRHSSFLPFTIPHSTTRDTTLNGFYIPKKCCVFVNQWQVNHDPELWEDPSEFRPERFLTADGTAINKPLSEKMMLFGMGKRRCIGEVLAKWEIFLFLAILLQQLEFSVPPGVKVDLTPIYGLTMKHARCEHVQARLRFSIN
UniProt P04150, sequence (P04150 whole entry, looked up): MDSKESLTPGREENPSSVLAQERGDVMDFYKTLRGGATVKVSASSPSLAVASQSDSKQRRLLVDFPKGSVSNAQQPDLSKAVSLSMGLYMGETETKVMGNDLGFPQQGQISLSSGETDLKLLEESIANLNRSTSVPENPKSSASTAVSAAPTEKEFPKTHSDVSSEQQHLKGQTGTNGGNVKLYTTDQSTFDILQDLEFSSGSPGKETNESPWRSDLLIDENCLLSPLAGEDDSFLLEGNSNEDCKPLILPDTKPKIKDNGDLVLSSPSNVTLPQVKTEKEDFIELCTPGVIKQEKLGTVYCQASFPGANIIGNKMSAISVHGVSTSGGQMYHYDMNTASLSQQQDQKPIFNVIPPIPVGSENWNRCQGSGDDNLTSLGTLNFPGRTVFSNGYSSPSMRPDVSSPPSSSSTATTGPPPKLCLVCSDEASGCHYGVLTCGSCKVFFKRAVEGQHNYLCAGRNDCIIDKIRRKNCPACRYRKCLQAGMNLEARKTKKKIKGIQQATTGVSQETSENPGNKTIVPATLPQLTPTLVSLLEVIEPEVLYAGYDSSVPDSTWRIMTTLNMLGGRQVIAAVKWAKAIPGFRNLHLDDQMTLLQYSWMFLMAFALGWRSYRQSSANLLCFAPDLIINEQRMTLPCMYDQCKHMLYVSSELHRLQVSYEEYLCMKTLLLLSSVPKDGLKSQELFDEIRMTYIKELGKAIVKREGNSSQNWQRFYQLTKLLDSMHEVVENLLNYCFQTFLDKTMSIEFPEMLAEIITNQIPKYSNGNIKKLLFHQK

CCCCC(CC)COCCC#N (stereo not given)
inconclusive: activation [1] -1.8% | ratio activity, negative = inhibition [3] 2.6% | Potency [5] 4.9 µM [cytotoxic, single point] | activity change, negative = inhibition [6] -9.2% | activation [7] 12% | Potency [10] 63.3 µM [inhibitor, partial curve]
inactive: Potency [2] | Potency [4] | Potency [8] | Potency [9]

COc1ccc(C(=O)c2ccc(C)cc2)c(O)c1
inactive: Potency [1] | Potency [3]
inconclusive: ratio activity, negative = MMP loss [2] -27.2% | Potency [11] 69.4 µM [cytotoxic, single point] | Potency [12] 33.5 µM [rising, single point] | activation [4] 24.6% [at 94.8 µM] | Potency [13] 19.7 µM [rising, full curve] | Potency [7] 24.8 µM [rising, full curve, poor fit] | Potency [15] 31 µM [rising, full curve]
active: Potency [14] 19.5 µM | Potency [16] 5.08 µM

NS(=O)(=O)c1ccc(Cl)c(S(N)(=O)=O)c1
inconclusive: ratio activity, negative = MMP loss [2] -25.5% | activation [4] -9.66% | Potency [16] 5.49 µM [inhibitor, partial curve, poor fit]
inactive: Potency [3] | Potency [7] | Potency [15] | Potency [10]

COc1ccc(OC)c(OC)c1
inactive: Potency [1] | Potency [2] | Potency [3] | Potency [8]
inconclusive: Potency [4] 48.6 µM [rising, partial curve, poor fit] | activation [7] 24.4% | Potency [16] 79.6 µM [inhibitor, single point]

O=C(O)P(=O)(O)O
inactive: Potency [12] | Potency [4] | Potency [7]
inconclusive: ratio activity, negative = MMP loss [2] -0.808% | activity change, negative = inhibition [17] 5.29% | Potency [11] 33.5 µM [rising, partial curve, poor fit] | Potency [15] 33.5 µM [rising, partial curve, poor fit]

Cc1cccc(Nc2ccncc2S(=O)(=O)NC(=O)NC(C)C)c1
active: Potency [10] 13.8 µM
inconclusive: Potency [1] 5.69 µM [falling, partial curve, poor fit] | Potency [13] 0.266 µM [rising, full curve, poor fit]
inactive: Potency [7]

CC1(C)C(=O)N(CO)C(=O)N1CO
inactive: Potency [7] | Potency [14] | Potency [10]
inconclusive: Potency [18] 35.6 µM [inhibitor, partial curve]
